This sample is rich in variants without activity.
B1: TPR 5TU (parent)
chain: GGAUCUUCUCGAUCUAACAAAAAAGACAAAUCUGCCACAAAGCUUGAGAGCAUCUUCGGAUGCAGAGGCGGCAGCCUUCGGUGGCGCGAUAGCGCCAACGUUCUCAACUAUGACACGCAAAACGCGUGCUCCGUUGAAUGGAGUUUAUCAUG

Variants of: B1
Experiment: polymerase ribozyme fitness, log enrichment relative to wild type (log ratio); higher = more active; in vitro selection for triplet polymerase activity
Procedure, shortened: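 Fitness compares each genotype's enrichment to that of the wild type on a logarithmic scale, averaging replicates with inverse-variance weights. The logarithm is base 2. Enrichment came from Illumina sequencing of input and output libraries after one triplicate round of in vitro selection, which included frozen incubation at −7 °C, of PCR-built, transcribed mutant libraries of each subunit of a heterodimeric triplet polymerase ribozyme. Only genotypes with ≥10 input reads and ≥1 read per output were kept.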

Q: Which “polymerase ribozyme fitness (log ratio)” value does the source give for GGAUCUUCUCGAUCUAACAAAAAAGACAAAUCUGCCACAAAGCUUGAGUGCAUCUUCGGAUACAGAGGCGGCAGCCUUCGGUGGCGCGACAGCGCCAACGUUCUCAACUGUGACACGCAAAACGCGUGCUCCGAUGAAUGGCGUUUAACAUG here?
A: ≤ -4.2

Q: Which “polymerase ribozyme fitness (log ratio)” value does the source give for GGAUCUUCUCGAUCUAACAAAAAAGACAAAUCUGCCACAAAGCUUGAGUCCAUCUUCGGAUGCAGAGGCGCCAGCCUUCGGUGGCGCGAUACCGCCAACGUUAUCAACUAUGACACCCAAAACGCGUGCUCCGUUGAAUGGAGUUUAUCAUG here?
A: ≤ -4.2

Q: Which “polymerase ribozyme fitness (log ratio)” value does the source give for GGAUCUUCUCGAUCUAACAAAAAAGACAAAUCUGCCACAAAGCUUGAGUGCAACUUCGGAUGCAGAGGCGGCAGCCUUCGGUGGCGCGAUAUCGCCAACGUUCUCAACUAUGACAAGCAAAACGCGUGCUCCGUUGAAUGGAGUUUAUCAUG here?
A: -1.33

Q: Which “polymerase ribozyme fitness (log ratio)” value does the source give for GGAUCUUCUCGAUCUAACAAAAAAGACAAAUCUGCCACAAAGCUUGAGAACAUAUUCGGAUGCAGAGGCGGCAGCCUUCGGUGGCGCGCUAGAGCCAACGGUCUCAGCUAUGACACGCAAAACGCUUGCUCCGUUGUAUGGAGUUUAACAUG here?
A: ≤ -4.2

Q: For GGAUCUUCUCGAUCUAACAAAAAAGACAAAUCUGCCACAAAGCUUGAGUGCAUCUUCGGAUGCAAAGGCGGCAGCCUUCCGUGGCGCGAUAGCGCCAACGUUCUCAACUAUGACACGCAAAACGCGUGCUCCGUUGAAUGGAGUUUAUCAUG, which “polymerase ribozyme fitness (log ratio)” value is on record?
A: ≤ -4.2

Q: With GGAUCUUCUCGAUCUAACAAAAAAGACAAAUCUGCCACAAAGCUUGAGUGCAUCUUCGGAUGCAGAGGCGGCAGCCUUCGGUGGGGCGAUAGCGCCAACGUUGUCAACUAUGACACGGAAAACGGGUGCUCCGUUGAAUGGAGUUUAUCAUG as the variant, how does the “polymerase ribozyme fitness (log ratio)” value read?
A: ≤ -4.2

Q: With GGAUCUUCUCGAUCUAACAAAAAAGACAAAUCUGCCACAAAGCUUGAGAACAUCUUAGGAUGCAGAGGCGGCAGCCUUCGGUGGCGCGAUAGCGCCAAAGUUCUCAACUAUGACACGCAAAACGCGUGCUCCGUUGAAUGGAGUUUAUCAUG as the variant, how does the “polymerase ribozyme fitness (log ratio)” value read?
A: -2.67

Q: For GGAUCUUCUCGAUCUAACAAAAAAGACAAAUCUGCCACAAAGCUUGAGUGCAUCUUCGGAUGCAGAUGCGGCAGUCUUCGGUGGCGCGAUUACGCCAGCGUUCUCCACUAUGACACGCAAAACGCGUGCUCCGUUGAAUGGAUUUUAUCAUG, which “polymerase ribozyme fitness (log ratio)” value is on record?
A: ≤ -4.2

Q: For GGAUCUUCUCGAUCUAACAAAAAAGACAAAUCUGCCACAAAGCUUGAGUGCAUCUUCGGAUGCAGAGGCGGCAGCCUUCGGUGGCGCGAAAGCGCCAACGUUCUCAACUAUGACGCGCAAAACGCGUGCUCCGUUGAAUGGAGUUUAUCAUG, which “polymerase ribozyme fitness (log ratio)” value is on record?
A: ≤ -4.2

Q: Which “polymerase ribozyme fitness (log ratio)” value does the source give for GGAUCUUCUCGAUCUAACAAAAAAGACAAAUCUGCCACAAAGCUUGAGUGCAUCUUCGGAUGCAGAGGCGGCAGCCCUCGGUGGCGCGAUAGCGCCAACGUUCUCAACUAUGACACGCAAAUCGCGUGCUCCGUUGAAUGGAGUUUAUCAUG here?
A: ≤ -4.2

Q: For GGAUCUUCUCGAUCUAACAAAAAAGACAAAUCUGCCACAAAGCUUGAGUGCAUCUUCGGAUGCAGAGGCGGCAGCCUUCGGUGGCGCGAUAGCGCCAACGUUCUCAACUAUGACACGCAAAACGCGUGCUACGUGGAAUGGAAUUUAUCAUG, which “polymerase ribozyme fitness (log ratio)” value is on record?
A: ≤ -4.2

Q: Which “polymerase ribozyme fitness (log ratio)” value does the source give for GGAUCUUCUCGAUCUAACAAAAAAGACAAAUCUGCCACAAAGCUUGAGUACAUCUUCGGAUGCAGAGGCGGCAGCCUUCGGUGACGCGAUAGCGGCAACGUUCUCAACUAUGACACGCAAAACGCGUGCUCCGUUGAAUGGAGUUCAUCAUG here?
A: -1.2

Q: For GGAUCUUCUCGAUCUAACAAAAAAGACAAAUCUGCCACAAAGCUUGAGUGCAUCUUCGGAUGCAGACGCGGUAGCCUUCGGUGGCGCGAUAUCGCCAAGGUUCUCAACUAUGACACGCAAAACGCGUGCUCCGUUGAAUGGAGUUUAUCAUG, which “polymerase ribozyme fitness (log ratio)” value is on record?
A: ≤ -4.2

Q: Which “polymerase ribozyme fitness (log ratio)” value does the source give for GGAUCUUCUCGAUCUAACAAAAAAGACAAAUCUGCCACAAAGCUUGAGUGCAUCUUCGGAUGCAGAGGCGGCAGCCUUCGGUGGCGAGAUAGCGUCAACGUUCUCAACUAUGACACGCAAAACGCGUGCUCCGUUGAAUGGAGUUUAUCAUG here?
A: ≤ -4.2

Q: With GGAUCUUCUCGAUCUAACAAAAAAGACAAAUCUGCCACAAAGCUUGAGUGCAACUUCGGAUGCGGAGGCGGCAGCCUUCGGUGUCGCGACAGCGCAGACGUUCUCAACUAUGACACGCAAAACUCGUGCUCCGUUGAAUAGAGUUUAUCAUG as the variant, how does the “polymerase ribozyme fitness (log ratio)” value read?
A: ≤ -4.2

Q: Which “polymerase ribozyme fitness (log ratio)” value does the source give for GGAUCUUCUCGAUCUAACAAAAAAGACAAAUCUGCCACAAAGCUUGAGUACAUCUUCGGAUGCAGAGGCGGCGGCGUUCGGUGGCGCGGUAGCGCCAACGUUCUCAACUAUGACACGCAAAACGCGUGGUCCGUUGAAUGGAGUUUAUCAUG here?
A: ≤ -4.2

Q: With GGAUCUUCUCGAUCUAACAAAAAAGACAAAUCUGCCACAAAGCUUGAGAACUUCUUCGGAUGCAGAGGCGGCAGCCUUCGGUGGGGCGAUAGCGCCAACGUUCUCAACUAUGACACGCAAAACGCGUGCUCCGCUGAAUGGAGUUUAUCAUG as the variant, how does the “polymerase ribozyme fitness (log ratio)” value read?
A: ≤ -4.2

Q: Which “polymerase ribozyme fitness (log ratio)” value does the source give for GGAUCUUCUCGAUCUAACAAAAAAGACAAAUCUGCCACAAAGCUUGAGAACCACUUCGGAUGCAGAGGCGGCAGCCUUCGGUGGCGCGAUAGCGCAAACGUUCUCAACUAUGACACGCAAAACGCGUGCUCCGUUGAAUGUAGUUUAUCAUG here?
A: ≤ -4.2

Q: For GGAUCUUCUCGAUCUAACAAAAAAGACAAAUCUGCCACAAAGCUUGAGAACAUCUUAGGAUGCAGAGGCGGCAGCCUUCGGUGGCGGGAUAGGGCCAACGUUCUCAACUUUGACACGCAAUACGCGUGCUCCGUUGAAUGGAGUUUAUCAUG, which “polymerase ribozyme fitness (log ratio)” value is on record?
A: ≤ -4.2

Reference: the RNAGym collection of RNA variant scans (doi:10.1073/pnas.2313332121)
